Laboratory results: the RNAGym collection of RNA variant scans (doi:10.7554/elife.90254)
The source gives no read counts; variants with many changes may rest on few reads.

B1: LINE1-full (parent)
chain: UACGUAGGUGGUUUUCCCCUGAUAGUGCUAAGGGGGCCUGGAAGUUUGGACUGGGCAGAGCUCAACACAGCGUGGCAAAGUGGCUGUGGCUAGACUGCCUCUCUGGAUUCCUCGUCACUCAGCAGGGCAUCUCUGAGAGAAAUGCC

Variants of: B1
Experiment: self-cleavage, relative activity (ratio to wild type); higher = more cleavage; in vitro, sequencing; the parent is a self-cleaving ribozyme

Variant	self-cleavage
U13A U23C A57U	0.21
G80A G88A A124G	0.03
U46C U85A U115C U132G	0.1
U13A U62C U104A	0.08
C19U U52A U143A	0.9
C16U A22G U112C	2.04
G82A A94G U143C	0.22
C37G U73A U100C U115C	1.19
U9G G25A A43G U108C	0.9
U14C A59U U115G	0.77
G10A A69G U91C A92U A129U U130C	0
U1C G11A U52C	0.67
A65G A138G A141G	0
U13C A22G U23C G53A U85C U108C	0.66
U13C G127A U132C	2.07
G72U A79U U130C	2.08
U52C A117C A140G	1.82
G21U U26C A43U G139A	1.22
U39A A65G A129C	0.06
U1C U46A A142G	1.33
U46C A69G U115C C128A A136G A138G	1.47
U9C G44U A140G	1.94
G53A G80A U85C G88A C128U U134G	0.04
U46C A79G U81C	0.64

Variant	self-cleavage
U12C U20A G34A G60U A140G	0.02
U13C C19U G34A A69G A77U A94C U108C	0.61
A30U U45A U47A A78U	1.34
A50G U52C A65G A136G	0
A30U A64U A136U	0.62
C28G U100C U132A	1.91
U73C A136G A140G	1.07
A6G A59G A121U	0.24
U14A A121G A136G	0.21
A2G U47C G82A U96G	0.08
U13C U62A A78C	0.16
U85G A124U C145U	0.12
A2G C37A U73A U108G	1.31
U12C C38U A78C A142G	1.88
U13C A67C G127A	0.09
U45C C90U U100C U119A	0
U62C A94G A141G	0
U20C A67G A79G U132C	0
A69U U85C A138G	0.09
C19U U62C U112C U134A	0.08
U12C U81G U119C A140U	1.02
U26C A59G G105A U132C	0.13
C17U G60U U112C A142G	0.09
U29A U46C G55A U96C U102C	0.1

Variant	self-cleavage
A79U A117U A124U A138G	2.8
G70A G83U A124C U132C A136G U143A	0.12
U26C A30U A69U U91C A142G	0
A24U A59U U109C	0.74
U46A U96C A136G	0.07
A43G A50U U130C	1.15
U96A U104C A140G	0.02
A64G A92G A142G	0
G58U A69G G86A U108C	0.03
G44A U115C A124U	1.67
U45C A57G U130C	1.1
A65G U112A A138G	0.09
A79G U91G A138G	0
A42G G89A U96C A129G	0.03
G10U A24C U26C A31G U47A C110U	0.92
A64G U104A A124G	0.2
U46C U62C A67G A136U A142G U143A	0.13
A50G G80A A142G	1.07
A42G U52C A57U	0.12
G7A U62C A67G U132C	0.1
A24G A43G C51U A67G G83A A136G	0.3
A24G U45A A59C	0.63
U119C A129U U134A	2.27
A42G C56U A121C	0.33

Variant	self-cleavage
A57U U115A A138G A140G	0
U13C U62C A107G	0
U39A G89C A129G A141G	0
A107U U108C A117C	2.3
A22G A65G U115C	0
A57U A77U C120A	0.11
U15C U26A A141G	1.17
U13C U23C U109G	0.44
U12C A138G A140G	1.94
A57G A59U A77U	0.38
U14C A22G U96A	0.12
U1C C95G A140G	0.03
U52A C56U G74A	0.12
A22G A50C A69G U134A A142G	0
A43G U87A U143G	0
U47A U104A A136G	0.68
U12A U26C U45G	2.51
U14C U96C U119C	0
U12C A43G A140G	0.69
A77U A121G A142G	0.94
U1C A2U U20A	0.6
U87C U109C A138G	0
U26G A140G A141G	1.2
A69G A138U A141G	0.74

Variant	self-cleavage
U9A A57U U62A A129G	0.04
C17U U91C U96C	0
U9A U13C A57G U62A U81C	0
A64G U85A G89A A117G	0.06
A67G A107C A141G	1.31
U5C U9A C19A U52A G80A	0.53
U15C U20A A64U	0.63
A57U U62C U132C A141G	0.13
G35A U47A A77G C116U U132C	1.71
G21U G75U U112C C113U A124G	0.36
A6G U26A U73G A129G	0.2
A6G G25A A140U	0.96
A6G U20G A30U A67C U73C	0.92
U45A U134C A140G	1.31
U9C G11A U102C U115C A141G	0.88
A57G U62C U134C	0.24
U15C U20A U52A	1.8
U47C G75U U85A U108C A142U	0.15
A2G U39A C63U A67U A141G	0.11
A43U U134C A140U	1.15
U15C A50G G89C	0
A31G A78G U109G	1.71
A94G G106A U143C	0.31
U26C U52A A69G A77G G106U U130C	0

Variant	self-cleavage
U14C A57G A69G U96C	1.84
U20C G32A A92G U132A	0.04
G36A A59U U115A	0.58
U29C U91A A121U	0.95
A65U U102C U143C	0.25
U62A U119A G137A	0
A59G A78G G82A G97A U119C G122U	0.03
U52C C68U A124C A129G A136G	0.2
U46A C61U U132C A136G A141G	0.06
A22G A42G A92G	0
A65G U115A C133U	0.04
G7U U12C A22G U112C	0.85
U20C A31U U52A A69U U119C U130A	0.19
U91C C116U U130C	0.66
U12C C90U A121G G127U	0.04
C3U G44U G48U A124U A140G	1.26
G55A U108C A121G	0.73
A30U U45C C71U	0.98
C37U U45C A129U	1.05
A57U C76U U130C	0.17
G36U U96C U119C A141G	0.18
U5A A57G U108C	0.74
A2G U39C G97A	0.2
G54A U73C U104G A138G	0.38

Variant	self-cleavage
U1C G122U U134C	0.91
U14C U20C U87C	0
U14C U15A U52C A142C	0.82
G48A U132C U143C	0
U12A U45C A65U	0.1
U14C G54U A117C	1.07
U47A A57G A77U	0.57
C37G U62C U108A	0.02
A43G U73A U91A	1.07
U132C U134C A142G	1.58
U13A A31U U52A U85A A117G U119C U130C G137U	0
U14A G36A A50G U87A	0.04
U13C U23C U26C A124U A138G	0
U13C C19U U62C U81G	0.1
U20A G72A U87A A124U	0.08
A43G A140G A142G	2.04
U85A A142G C145U	0.07
U52C U96C U115C	0
G75A U87A A94G A117G	0.04
U46C A77U A78G U104C	0
U20C G35A G93A	0.04
A42G A78G U132C A140G	2.08
U23C A24G U39C U96A	1.38
